The RNAGym collection of RNA variant scans (doi:10.1073/pnas.2313332121)
This sample is rich in variants without activity.

B1: TPR 5TU (parent)
chain: GGAUCUUCUCGAUCUAACAAAAAAGACAAAUCUGCCACAAAGCUUGAGAGCAUCUUCGGAUGCAGAGGCGGCAGCCUUCGGUGGCGCGAUAGCGCCAACGUUCUCAACUAUGACACGCAAAACGCGUGCUCCGUUGAAUGGAGUUUAUCAUG

Variants of: B1
Assay: polymerase ribozyme fitness, log enrichment relative to wild type (log ratio); higher = more active; in vitro selection for triplet polymerase activity
How it was run: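 Both subunits of a heterodimeric triplet polymerase ribozyme were given their own mutant library, built by PCR and transcribed. Each library was annealed with a biotinylated primer, the partner subunit and triplets, incubated frozen at −7 °C, and its extended constructs gel-excised, captured on streptavidin beads and amplified by RT-PCR, all in one round done in triplicate. Fitness is the logarithm of genotype enrichment relative to wild-type enrichment, with replicates averaged by inverse-variance weighting. That logarithm is base 2, and Illumina-sequenced genotypes needed ≥10 input reads and ≥1 read per output.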

Variant | polymerase ribozyme fitness (log ratio)
A24C G42U U44G U61A G80C A110U | ≤ -4.2
A24C G46A G94U C95A A115C | ≤ -4.2
A24C G46C A73G C93A A110U A147U | ≤ -4.2
A24C G48A G83A | ≤ -4.2
A24C G48C C51A C57G A73G C95U U104G C105G | ≤ -4.2
A24C G48U C96A U127G A147G | ≤ -4.2
A24C G48U G74A U90G C93A | ≤ -4.2
A24C G58A G59A G62A G84C C87A G143A | ≤ -4.2
A24C G67A G81C G88A | ≤ -4.2
A24C G68U C76A U77C | ≤ -4.2
A24C G88U C95G C96U | ≤ -4.2
A24C U31A A52G | -3.62
A24C U53A U55A A98U G126A C149G | ≤ -4.2
A24C U53C C118U A142C | ≤ -4.2
A24C U55A C57U G58U A66G G68C C85A C149G | ≤ -4.2
A24C U55G C76A G83U C95U C116A C118G U144A | ≤ -4.2
A24C U56A G124C | ≤ -4.2
A24G A26C A60G G83A | ≤ -4.2
A24G A26U C57U C85U G86U C118A A142C | ≤ -4.2
A24G A28C A49C C51G A91U G92A C114G A119G G136C | ≤ -4.2
A24G A28U G34A A49U U101A | ≤ -4.2

Variant | polymerase ribozyme fitness (log ratio)
A24G A28U G48A U56A G62A G81A U102G U144C | ≤ -4.2
A24G A28U U44A G80U | ≤ -4.2
A24G A29C A47G C85A C95U U135A A150G | ≤ -4.2
A24G A30G C35G U55G G65C A89U A106C U111G G140A U144A | ≤ -4.2
A24G A30G G84U A122G | ≤ -4.2
A24G A37C C54U G59U U134C A142U A150C | ≤ -4.2
A24G A37U G58A U77C G84A C85G | ≤ -4.2
A24G A39C C96G C99U A138G U139C U148A | ≤ -4.2
A24G A41C C51G C75A G94U U127C | ≤ -4.2
A24G A41C G65U C72U C96U C105A C129G | ≤ -4.2
A24G A49C U56A G67U C85U G94C A119U | ≤ -4.2
A24G A52C C85U C96U C105U A120U G136A | ≤ -4.2
A24G A60C U78G G83A U90A | ≤ -4.2
A24G A60U C72G C87G C125U U130G A142U | ≤ -4.2
A24G A64U U90G G94A | ≤ -4.2
A24G A66G C85A A91U U127C G133A U134A | ≤ -4.2
A24G A119G A121G A122U C129G | ≤ -4.2
A24G C27G A60U A89G C96A | ≤ -4.2
A24G C32A G62A | ≤ -4.2
A24G C35A G58A C93G C99A | ≤ -4.2
A24G C35G G50C G80U G86U C118G A138G | ≤ -4.2

Variant | polymerase ribozyme fitness (log ratio)
A24G C35U A150C | ≤ -4.2
A24G C36A G48A C75G G92U | ≤ -4.2
A24G C36A G94U U144G | ≤ -4.2
A24G C43U C57U G83A | ≤ -4.2
A24G C54G G58U A60G C93G U145G | ≤ -4.2
A24G C75U G84A U102G | ≤ -4.2
A24G C79U A91G A107G | ≤ -4.2
A24G C85A | -2.96
A24G C85G | ≤ -4.2
A24G C87U U146A | ≤ -4.2
A24G C96U A120G | ≤ -4.2
A24G C123U C132U U134A | ≤ -4.2
A24G C125G | -3.52
A24G G34A G58C C87A C99U | ≤ -4.2
A24G G42C U82A A107G A113G | ≤ -4.2
A24G G46C G59C A60G C132G | ≤ -4.2
A24G G48U U56A C132U | ≤ -4.2
A24G G50A A73G G86A C87G A89U C93G | ≤ -4.2
A24G G50A U55A G58C C96U A120U | ≤ -4.2
A24G G50U C95U C96A A106C U139C G140U | ≤ -4.2
A24G G58A G62U C69U C93G G128A | ≤ -4.2

Variant | polymerase ribozyme fitness (log ratio)
A24G G68A A119U C149G A150U | ≤ -4.2
A24G G74A C93G G140C U151G | ≤ -4.2
A24G G74C U82G G84U C108G C123U | ≤ -4.2
A24G G84U C87G G88U | ≤ -4.2
A24G G86U | -3.77
A24G U31A C51A C54A C85A C99A C118U A121U A137G | ≤ -4.2
A24G U31A U82C U101G | ≤ -4.2
A24G U31C G42C A52U A115C | ≤ -4.2
A24G U31G G46U C72U C79G C95U U101G A142G | ≤ -4.2
A24G U45A A73G C76G U82G G143U | ≤ -4.2
A24G U45A C54G G58C C93U | ≤ -4.2
A24G U45G C87U | ≤ -4.2
A24G U53A U61A G84C C125U | ≤ -4.2
A24G U56G U61A U78G C85U G92U G140A | ≤ -4.2
A24G U61C U82G C95U | ≤ -4.2
A24G U78A | ≤ -4.2
A24U A26C A40C A73U G88C C108U | ≤ -4.2
A24U A26G C27U A37G A97C C103A A110G G112C | ≤ -4.2
A24U A26U A40C U44C | ≤ -4.2
A24U A26U C54A G92A G141C | ≤ -4.2
A24U A26U G42U U78A A91U C93G A122C | ≤ -4.2
